Measurements: PubChem BioAssay (NCI)
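These data come from cells grown in 96-well plates and exposed to compound for 48 hours at five concentrations. Abbreviation: GI50, concentration required for 50% inhibition of growth.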 The source holds more than one record for some entries. They are shown here; other results are not. The source may hold further records. Records of one sample usually come from different ranges of test concentrations, which the source does not state; a value can be the end of its range.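 At the TGI there is no net growth.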

Columns and labels:
Test in all cases: inhibition of tumour cell growth, NCI panel, 48 h
[1] = system: RPMI-8226 leukemia
[2] = system: SNB-75 CNS
[3] = system: SK-OV-3 ovarian
[4] = system: TK-10 renal
[5] = system: OVCAR-5 ovarian
[6] = system: NCI-H23 lung
[7] = system: KM12 colon
[8] = system: SK-MEL-2 melanoma
[9] = system: NCI-H460 lung
[10] = system: BT-549 breast
[11] = system: NCI/ADR-RES ovarian
[12] = system: COLO 205 colon
[13] = system: HCC-2998 colon
[14] = system: IGROV1 ovarian

For `C=C(CN(C)C)C(=O)c1ccccc1[N+](=O)[O-]`, the TGI [1] was 5.91 µM [1 test] and > 68.8 µM [mean of 2 tests].
In the case of `CC(C)(C)c1cc(C=C(C#N)C#N)cc(C(C)(C)C)c1O`, the TGI [1] is reported as 674 nM and 11.6 µM, the TGI [2] is reported as 793 nM and 28.3 µM and the TGI [3] is reported as 831 nM [1 test] and 15.8 µM [mean of 2 tests]. For the same molecule, the TGI [4] was 923 nM and 197 µM, the TGI [5] was 32.2 µM and > 354 µM and the TGI [6] was 825 nM and 9.89 µM. For the same molecule, the TGI [7] was 73.1 µM and 6.21 µM.
In the case of `CCC1=CC2CN(C1)Cc1c([nH]c3ccccc13)[C@@](C(=O)OC)(c1cc3c(cc1OC)N(C)[C@H]1[C@@](O)(C(=O)OC)[C@H](OC(C)=O)[C@]4(CC)C=CCN5CC[C@]31[C@@H]54)C2` (some centres not stated), the TGI [1] is reported as 5.28 µM and > 100 µM, the GI50 [8] is reported as < 5 nM and 23.6 µM and the TGI [9] is reported as 8.09 µM and 446 nM. The TGI [10] was 413 nM and 19.1 µM, the TGI [11] was 9.04 µM and > 100 µM and the TGI [12] was 367 nM and 19.8 nM. The TGI [13] was 11.8 µM and 86.7 nM, the GI50 [14] was < 5 nM and 342 nM and the TGI [14] was 353 nM and > 100 µM.
